# Laboratory results: PubChem BioAssay AID651820 (National Center for Advancing Translational Sciences (NCATS), 2012)
# The campaign covered roughly 340,000 compounds. About 12,000 (3.5%) were called active. This list was built around the results that the source calls inconclusive (neither active nor inactive); the mix of calls is not that of the screen. Calls follow the shape of the dose curve; as a rule, active = well fitted inhibition curve with a large enough effect; inconclusive = small, poorly fitted or top-dose-only effect, or another doubt; inactive = no such curve, though single readings can be large or run the other way. No potency is given beside an inconclusive call; the fits are too rough.
# Assay: qHTS Assay for Inhibitors of Hepatitis C Virus (HCV)
# Conditions: Huh7.5.1 HCVcc-Cre (HCVcc is cell-culture hepatitis C virus) infection, luciferase reporter, 44 h; activity change, negative = inhibition: at 41.8 µM (top of the series) unless noted
# In short: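 Reporter virus HCVcc-Cre (~0.5 moi) infects cells exposed to compound; seeding density 1,000 cells/well with 4 h settling beforehand. Luminescence, 15 sec read, taken 44 h post-infection following a 15 min RT substrate incubation.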
# % is scaled to controls: 0 for no effect and ±100 for the full control effect; potency is read from the fitted curve at half-maximal effect; tags tell the direction and shape of the fitted curve.
Structure (SMILES),Potency,"activity change, negative = inhibition"
CC(C)(C)C(=O)/C=c1\[nH]c(=O)/c(=C\c2ccc(C#N)cc2)s1,"inconclusive [inhibitor, single point]",–
CCOc1cccc(-c2nn3c(-c4cc(C)[nH]n4)nnc3s2)c1,inactive,–
O=C(CC(=O)N/N=C\c1cccc(Cl)c1Cl)NCc1ccccc1,"inconclusive [inhibitor, single point]",–
CCOc1ccc(-c2cccc(NC(=O)c3cccs3)c2)nn1,–,inconclusive: -31.7% [inhibitor]
O=C(Nc1ccc(N2CCOCC2)cc1)Nc1cnsn1,inactive,–
COc1ccc(NC(=S)Nc2ccc(OCc3ccccc3)cc2)c(OC)c1,"inconclusive [inhibitor, single point]",–
COc1cc(/C=C2/C(=N)N3C(=NC2=O)SN=C3S(=O)(=O)C(C)C)ccc1OC(=O)c1ccco1,inactive,–
Cc1cc(NC(=O)COc2ccc3ccccc3c2)no1,inactive,–
CC(=O)Nc1ncnc2c1c(-c1ccc(Cl)cc1)nn2C(C)(C)C,inactive,–
Cc1ccc2nc(NC(=O)Cc3cccs3)sc2c1,"inconclusive [inhibitor, single point]",–
COc1cccc(CNC(=O)CN(C)S(=O)(=O)c2ccc3c(c2)n(C)c(=O)c(=O)n3C)c1,inactive,–
O=C(Nc1ccc2c(c1)CCC2)c1cc2ccccc2o1,inactive,–
CC(=O)Nc1ccc(NC(=O)CSC2=NS(=O)(=O)c3cc(F)ccc3N2)cc1,"inconclusive [inhibitor, single point]",–
COc1ccc2cc(C(=O)N/N=C/c3sc4ccccc4c3O)ccc2c1,"inconclusive [inhibitor, single point]",–
Nc1ccc(Oc2ccc(Br)cc2)cc1,"inconclusive [inhibitor, full curve]",–
CS(=O)(=O)Cc1cc(Sc2ccccc2)nc(-c2ccncc2)n1,active: 3.16 µM,–
Cc1cc(Cl)ccc1OCCCC(=O)NCc1ccncc1,inactive,–
CCN(CC)CCC(C)OC(c1ccccc1)c1ccccc1 (stereo not drawn),inactive,–
COc1cc(OC)c(C(=O)O/N=C(\N)c2cccc(C)c2)cc1OC,"inconclusive [inhibitor, partial curve]",–
Cc1ccc(S(=O)(=O)NCC(=O)NCCc2c[nH]c3ccccc23)cc1C,"inconclusive [inhibitor, single point]",–
Cc1cccc(C)c1OCC(O)CN1CCC(CN2C(=O)c3cccc4cccc(c34)C2=O)CC1 (stereo not drawn),"inconclusive [inhibitor, full curve, poor fit]",–
Cc1ccc(O)c(NC(=O)CSc2n[nH]c(-c3ccccc3)n2)c1,active: 11.2 µM,–
N#Cc1c(NC(=O)CSc2nc3ccccc3c(=O)n2Cc2ccco2)sc2c1CCCC2,"inconclusive [inhibitor, partial curve]",–
Cc1nonc1OCCNc1ccc([N+](=O)[O-])c2cccnc12,"inconclusive [inhibitor, single point]",–
Cc1ccc(S(=O)(=O)NCCC(=O)N2CCN(C/C=C/c3ccccc3)CC2)cc1,"inconclusive [inhibitor, single point]",–

Structure (SMILES),Potency,"activity change, negative = inhibition"
COCC(C)NC(=O)CSc1ncnc2sc(-c3ccccc3)cc12 (stereo not drawn),"inconclusive [inhibitor, single point]",–
CC(C)(C)CC(C)(C)c1ccc(O)c(CN2CCN(CCC#N)CC2)c1,inactive,–
Cc1ccc(-n2c(C)cc(/C=N/NC(=O)c3ccncc3)c2C)cc1,"inconclusive [inhibitor, full curve, poor fit]",–
Cc1ccsc1/C=N/NC(=O)c1nnn(-c2nonc2N)c1C,"inconclusive [inhibitor, single point]",–
Cc1oc2cc(O)cc(O)c2c(=O)c1-c1ccc2c(c1)OCCCO2,"inconclusive [inhibitor, single point]",–
O=C(COC(=O)C1CC1)Nc1ccc(Oc2ccccc2)cc1,"inconclusive [inhibitor, partial curve]",–
C#CCOc1ccc(Br)cc1/C=N/O,"inconclusive [inhibitor, single point]",–
Cc1cc(SCC(=O)NN)c2cc(Br)ccc2n1,inactive,–
Cc1ccc(NC(=O)C(c2ccc(Cl)cc2)N2CCCCC2)cc1 (stereo not drawn),"inconclusive [inhibitor, single point]",–
Cc1ccc(OCc2nnc(-c3ccc(Cl)cc3)o2)cc1,inactive,–
CCN(CC(=O)NC(c1ccccc1)c1ccccc1)Cc1nc2ccccc2c(=O)[nH]1,"inconclusive [inhibitor, single point]",–
CCOc1ccccc1C(=O)NCCCn1ccnc1,inactive,–
CCOc1ccc(C(=O)N[C@H](C(=O)Nc2cccc(S(=O)(=O)N3CCCCC3)c2)C(C)C)cc1,"inconclusive [inhibitor, single point]",–
COc1cccc(N2CCN(c3ccc(S(=O)(=O)N4CCN(C)CC4)cc3[N+](=O)[O-])CC2)c1,"inconclusive [inhibitor, single point]",–
CCCCN(c1ccccc1)S(=O)(=O)c1ccc2c(c1)CCN2C(=O)CCC(=O)O,inactive,–
CC(C)(O)C(=O)NNC(=S)Nc1cccc(C(F)(F)F)c1,inactive,–
CN1C(=O)C(=Cc2cn(CC(=O)N3CCCC3)c3ccccc23)C(=O)N(C)C1=O,inactive,–
COc1ccc(NS(=O)(=O)c2cccc(C(=O)NCC(c3ccc(OC)cc3)N3CCCCC3)c2)cc1 (stereo not drawn),"inconclusive [inhibitor, single point]",–
COc1ccc(/C=N/NC(=O)c2cc(C)oc2C)cc1OCc1ccccc1,"inconclusive [inhibitor, full curve]",–
CCc1nccn1CCC(=O)NC1CC(C)(C)Cc2c1cnn2-c1ccc(C)cc1 (stereo not drawn),"inconclusive [inhibitor, single point]",–
Cc1ccc(CNC(=O)c2ccc(S(=O)(=O)N(C)C)cc2)n1C,inactive,–
O=C1CCC/C=C\C[C@@H](CC(=O)N(CCO)Cc2ccccc2)C(=O)NCCO1,inactive,–
Fc1ccc(C2CC(c3cccs3)=NN2c2ccccc2)cc1 (stereo not drawn),"inconclusive [inhibitor, single point]",–
Cn1cc(Cl)c(C(=O)N/N=C/c2ccc(OS(=O)(=O)c3ccccc3)cc2)n1,"inconclusive [inhibitor, single point]",–
CCOc1ccccc1OCC(=O)Nc1cc(S(=O)(=O)N2CCCCC2)ccc1N1CCN(CC)CC1,"inconclusive [inhibitor, partial curve, poor fit]",–

Structure (SMILES),Potency,"activity change, negative = inhibition"
CCN(CC)CCCCCOc1ccccc1OC,"inconclusive [inhibitor, partial curve]",–
COc1ccc(NC(=O)c2cc3n(n2)C(C(F)(F)F)CC(c2ccco2)N3)cc1 (stereo not drawn),"inconclusive [inhibitor, full curve]",–
CC(C)CN(C(=O)C1=NN(c2ccccc2)C(=O)CC1)c1c(N)n(Cc2ccccc2)c(=O)[nH]c1=O,inactive,–
COc1ccc2c(-c3ccc(OCCN4CCCCC4)cc3)c(-c3ccccc3OC)sc2c1,"inconclusive [inhibitor, partial curve]",–
CC(C)Cn1c(N)c(C(=O)COC(=O)c2ccccc2F)c(=O)n(C)c1=O,active: 11.2 µM,–
O=C(CCCc1nc(-c2ccc(Cl)cc2)no1)NCC1CCCO1 (stereo not drawn),"inconclusive [inhibitor, partial curve]",–
O=C(Nc1cc(S(=O)(=O)N2CCOCC2)ccc1N1CCCCC1)c1ccccc1,"inconclusive [inhibitor, partial curve]",–
COc1ccccc1/C=[N+](\[O-])C1SC(=S)N(C)C1(C)C (stereo not drawn),inactive,–
O=C1C2C3C=CC(C4CC34)C2C(=O)N1/N=C/c1ccc([N+](=O)[O-])o1 (stereo not drawn),active: 11.2 µM,–
O=C(c1ccco1)N1CCN(Cc2nnnn2C2CCCCC2)CC1,inactive,–
CCCN(S(=O)(=O)c1ccccc1F)S(=O)(=O)c1ccccc1Br,inactive,–
CN(C)c1oc(-c2ccccc2Cl)nc1C#N,active: 25.1 µM,–
CN(N=Nc1nc[nH]c1C(=O)NN)C1CCCCC1,inactive,–
CC(C)(C)n1cnc2cc(NC(=O)c3ccc(Cl)cc3)ccc21,"inconclusive [inhibitor, partial curve]",–
O=S(=O)(c1ccc(Br)cc1)N1CCN(c2cc(-c3ccccc3)nc3ncnn23)CC1,"inconclusive [inhibitor, single point]",–
O=C(CN(Cc1ccc(F)cc1)C(=O)CNS(=O)(=O)c1ccccc1)NCc1ccco1,inactive,–
CC(C)Cn1nc(C(=O)NCc2ccccc2CN2CCCC2)c2ccccc2c1=O,"inconclusive [inhibitor, single point]",–
O=[N+]([O-])c1ccc(COc2ccc(CN3CCCCC3)cc2)cc1,inactive,–
Cc1ccc(S(=O)(=O)Nc2cccc3c2O[C@H](CN(C)C(=O)Nc2cccc4ccccc24)[C@H](C)CN([C@H](C)CO)C3=O)cc1,inactive,–
CCN(Cc1ccccc1)C(=O)C1CCN(c2ncnc3c2nc2n3CCCCC2)CC1,"inconclusive [inhibitor, single point]",–
Cc1cccc(N(C)C(=O)CN2C(=O)COc3ccc(S(=O)(=O)N4CCCCCC4)cc32)c1,"inconclusive [inhibitor, single point]",–
Cc1ccc(S(=O)(=O)N(C)c2ccc(OC(=O)c3cccs3)cc2)cc1C,inactive,–
Cc1cc(C)n(-c2ccc(C(=O)Nc3cc(C(F)(F)F)ccc3N3CCOCC3)cc2)n1,"inconclusive [inhibitor, partial curve]",–
